Assay results as given in the RNAGym collection of RNA variant scans (doi:10.7554/elife.90254).
Read counts are not given, so values of variants with three or more changes are uncertain.

B1: LINE1-full (parent)
chain: UACGUAGGUGGUUUUCCCCUGAUAGUGCUAAGGGGGCCUGGAAGUUUGGACUGGGCAGAGCUCAACACAGCGUGGCAAAGUGGCUGUGGCUAGACUGCCUCUCUGGAUUCCUCGUCACUCAGCAGGGCAUCUCUGAGAGAAAUGCC

Variants of: B1
Assay: self-cleavage, relative activity (ratio to wild type); higher = more cleavage; in vitro, sequencing; the parent is a self-cleaving ribozyme
With G41A A65G U115C the self-cleavage was 0.04.
In the case of U13A A59G U81C U108C A136U, the self-cleavage is reported as 0.
In the case of U52A U81C U130C, the self-cleavage is reported as 1.24.
U1C A94G U112C U143C showed a self-cleavage of 0.22.
With A30U A69U U108C A121G C133A U143C the self-cleavage was 0.1.
For U62C U109A G137A, the self-cleavage was 0.08.
A77G U87A A94G A129U gave a self-cleavage of 0.26.
Variant U26C U96G A121G has a self-cleavage of 0.84.
U12C A59G A69G U73A showed a self-cleavage of 0.
A67U A69G C98A A124G A141G gave a self-cleavage of 0.
For A59G U62C A142G, the self-cleavage was 0.
In the case of A24U A64G A78G A121G, the self-cleavage is reported as 0.79.
For U29A G53C U130C, the self-cleavage was 1.3.
With U45C U85A U130C the self-cleavage was 0.09.
U45G G114U A142G gave a self-cleavage of 0.84.
Work on A22G U39C A107G U134C yielded a self-cleavage of 1.23.
In the case of U12C A31G A117G, the self-cleavage is reported as 1.91.
U12G U14C U15C G72A A77G U132C showed a self-cleavage of 1.02.
Work on U9A U14C U87A U109A yielded a self-cleavage of 0.1.
A42G A67G U115C showed a self-cleavage of 1.53.
Variant U14C A22G U26A has a self-cleavage of 0.71.
Variant A6U C63U U104G U130A has a self-cleavage of 0.48.
In the case of U45C A79G U143C, the self-cleavage is reported as 1.46.
In the case of U52A U115C U134A, the self-cleavage is reported as 1.92.
U26A A77U A136G gave a self-cleavage of 0.46.
A79G A92G U115C showed a self-cleavage of 0.
Variant U14C C28G U47A U62C A67G A77G A138G has a self-cleavage of 0.88.
Work on U15C U81C U112C U143A yielded a self-cleavage of 0.68.
For A67G G74A G139U, the self-cleavage was 0.26.
Work on U9G G10A U13C yielded a self-cleavage of 1.35.
In the case of A57U A59G A141G, the self-cleavage is reported as 0.11.
Work on U20C G32C U45C G88A yielded a self-cleavage of 0.06.
For U14A C17U A24U U112A, the self-cleavage was 0.62.
Variant U13C U14C U29C U46C has a self-cleavage of 0.57.
For A2G A50G A64U A67G, the self-cleavage was 0.29.
Work on U1A U39C A69G A77U A140G yielded a self-cleavage of 0.67.
A24G A65G U91G A140G showed a self-cleavage of 0.
Work on U96C U109A U130C yielded a self-cleavage of 0.14.
Work on U15C U20A A24G U85A yielded a self-cleavage of 0.3.
With U13C A50C A64G A136G the self-cleavage was 0.89.
U13C U26C A94G showed a self-cleavage of 0.26.
For U62C A79G U109C A117C A141G, the self-cleavage was 0.
Variant U12C U14C A140U has a self-cleavage of 0.55.
Variant U39A C95A U115C U119C has a self-cleavage of 0.08.
With C28U A57G A142G the self-cleavage was 0.59.
Variant U23C A79G C98U has a self-cleavage of 0.
A6G C37U A94U A107G U109A gave a self-cleavage of 0.55.
U26C A64U G89A showed a self-cleavage of 0.05.
For U1C U5C C113A A124G U143C, the self-cleavage was 0.72.
U102C U115C C131U showed a self-cleavage of 2.3.
Variant G34U U81C U85C has a self-cleavage of 0.
A6G U26C A64U A78U U104C A138G gave a self-cleavage of 2.
With A6G U13C U112C A142G the self-cleavage was 0.95.
For U15C U45C U143C, the self-cleavage was 0.71.
For U62C A77G U87C C123U A138G, the self-cleavage was 0.03.
A22G C71U U100C A142C gave a self-cleavage of 1.37.
In the case of U46C A67U U115C A121G, the self-cleavage is reported as 0.55.
For U12C U46C U109A, the self-cleavage was 0.8.
For C3U A69G U104C, the self-cleavage was 0.
For U46C C61U U73C, the self-cleavage was 0.
Work on U9C U47A A65G A117G U134G yielded a self-cleavage of 0.24.
With U14G U46C U87A A136G the self-cleavage was 0.
With G35C C63U A129G G135A the self-cleavage was 0.24.
Variant U9C A65C A77G U115C A117U has a self-cleavage of 0.
U1A U132C U134A gave a self-cleavage of 0.41.
Work on G32A U47C U100C A138U A141G yielded a self-cleavage of 0.51.
Work on U12A G36C A57G G70A A92G U115G A129U yielded a self-cleavage of 0.
Variant A31G A79G U102C G106A has a self-cleavage of 1.53.
In the case of A69G G105A A140U, the self-cleavage is reported as 0.01.
With A31U A59G U73C the self-cleavage was 0.66.
For A69U A107U G122U, the self-cleavage was 0.04.
In the case of U20C U26C U73A, the self-cleavage is reported as 1.34.
Work on A31G A42U G93U U143A yielded a self-cleavage of 0.09.
In the case of U15A U85G C111A, the self-cleavage is reported as 0.09.
A107G C113U A121U U132C showed a self-cleavage of 0.83.
Variant C66U G88A A124C U130A has a self-cleavage of 0.7.
With U15A G60U U102C the self-cleavage was 0.04.
Work on U45C A57U U108C G126A yielded a self-cleavage of 0.02.
With G54A C68U U81C the self-cleavage was 0.08.
A30C A121G C123U gave a self-cleavage of 1.35.
With U26A A64G U115C the self-cleavage was 1.07.
In the case of U13C A92G U112C, the self-cleavage is reported as 0.16.
U52C U87G U119A A121U A136G A138G gave a self-cleavage of 0.
Variant U15A U39C A64U U87C has a self-cleavage of 0.
Work on U12C A79G A136U yielded a self-cleavage of 1.29.
In the case of U14C U62C U87C, the self-cleavage is reported as 0.
In the case of U13C U23C U45C A121U G126C, the self-cleavage is reported as 1.97.
U1C U5A A67G G88A gave a self-cleavage of 0.09.
For U13C U26C G82A, the self-cleavage was 1.47.
A79G C90A A121U gave a self-cleavage of 0.03.
In the case of C56U A59G U62G U102A U115A, the self-cleavage is reported as 0.1.
Work on U9C G40A A77C U134C yielded a self-cleavage of 0.49.
With G33U G35U A64G A124G the self-cleavage was 0.07.
A59G A65G A78G gave a self-cleavage of 0.33.
In the case of C3A U12A A43U, the self-cleavage is reported as 0.51.
C56U A57G A140G showed a self-cleavage of 0.15.
In the case of U46A A136G A142G, the self-cleavage is reported as 0.66.
U14A C71U G83U U102A gave a self-cleavage of 0.08.
U15A A22U U39C gave a self-cleavage of 1.1.
A31U A65G A69G showed a self-cleavage of 0.21.
U26G G32A U39C U45C showed a self-cleavage of 0.91.
In the case of U15C U46C A69G G125U, the self-cleavage is reported as 0.85.
Work on U14C U39C A65G A142G yielded a self-cleavage of 0.
For A30U A92U U143A, the self-cleavage was 0.49.
Variant U9A U47A U96A has a self-cleavage of 0.13.
With U29C A42G A77G the self-cleavage was 2.3.
U26C A117C U130G gave a self-cleavage of 1.53.
In the case of C71U A79U A117G, the self-cleavage is reported as 1.24.
For G7A A42G A79G, the self-cleavage was 1.18.
Variant G41A A65G U87C has a self-cleavage of 0.03.
U47C U62C A92G gave a self-cleavage of 0.
G32C U91C U96A showed a self-cleavage of 0.27.
With A42G U47C A69U C101U C120U U134C the self-cleavage was 0.02.
Variant U13C G35C U39C A59U U115C G139U has a self-cleavage of 0.68.
With G114U A117G U130C the self-cleavage was 2.02.
For U46C A57U U112C, the self-cleavage was 0.23.
In the case of U26C A92U U132C, the self-cleavage is reported as 0.7.
With G54A C68U A129U the self-cleavage was 0.07.
U46C A117C U130A showed a self-cleavage of 2.29.
U47C U96A G114A showed a self-cleavage of 0.08.
Work on A79G A107U U132A A142G yielded a self-cleavage of 0.61.
U9C U23C A50G G106A gave a self-cleavage of 1.41.
In the case of G8A U23C U26C U47A A129G, the self-cleavage is reported as 2.3.
In the case of A31U U52C A142G, the self-cleavage is reported as 1.62.
A2G A78G U85C G88C U115C showed a self-cleavage of 0.
With U9C G114A U115C the self-cleavage was 1.49.
In the case of A64C G75A U81A, the self-cleavage is reported as 0.34.
In the case of U15C A22U A24G A78U U102C A136G, the self-cleavage is reported as 1.53.
Variant A31C A57G A140G has a self-cleavage of 1.84.
G25U A59G U81C gave a self-cleavage of 0.
For U12C U81C C98U G106U, the self-cleavage was 0.78.
Work on U14C A59G A124G U143A yielded a self-cleavage of 0.31.
Work on A24C A129G A136U yielded a self-cleavage of 1.15.
For U73C A79G U96A, the self-cleavage was 0.
Variant A22U U23C U62C A77U U134A A142G has a self-cleavage of 0.
In the case of U46C G70U U96A U108C G114A, the self-cleavage is reported as 0.01.
U13C C17A C56U U132C gave a self-cleavage of 0.37.
Variant U9A U13A A57G U132C has a self-cleavage of 0.38.
For U5C U15C U39C U130C, the self-cleavage was 1.23.
Work on U26C A94C U115A yielded a self-cleavage of 0.08.
With C66U U100C U132C A142G the self-cleavage was 0.06.
U13G A64G A94G showed a self-cleavage of 0.
Variant U13C A30G A79G A129G has a self-cleavage of 0.47.
In the case of A64U U109C U119A A124G, the self-cleavage is reported as 0.23.
U39A U109C C113U U134C gave a self-cleavage of 1.52.
U13C U81A A117U gave a self-cleavage of 1.45.
Variant G11A U13A U14C has a self-cleavage of 0.89.
Variant G21A A50G A141G has a self-cleavage of 0.66.
With U26C U46A G55A A142G the self-cleavage was 0.2.
For C113A A138C A142G, the self-cleavage was 0.92.
For U26C A136G A141G, the self-cleavage was 1.44.
Variant U14C A24G U85C has a self-cleavage of 1.15.
Variant U13A U87C A92G has a self-cleavage of 0.
With A22G A30G C123U the self-cleavage was 0.61.
With U13A G82A A121U the self-cleavage was 1.06.
A78U U96G U134C showed a self-cleavage of 0.23.
With C120U A124G A138G U143C the self-cleavage was 1.41.
Variant A43G U47A U91C U104C has a self-cleavage of 0.
For A30G G36U A107G, the self-cleavage was 1.12.
U81A U87G U100C gave a self-cleavage of 0.65.
In the case of A59U U62A A124G, the self-cleavage is reported as 0.03.
Work on U29C A69G A136G yielded a self-cleavage of 0.97.
For U73A C84U U108C, the self-cleavage was 0.21.
For U13A U134A A141G, the self-cleavage was 0.48.
Work on U5C A92U U115C yielded a self-cleavage of 0.38.
Variant U1A U15A A22G A79G has a self-cleavage of 0.97.
Variant G36C U45C G89A C131U has a self-cleavage of 0.01.
